“Also recorded” adds a separate entry of the source. For part of its entries the source gives two or more results. They are shown here; other results are not.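 Rule for the calls: active = tumour findings in long-term animal cancer tests in more than one sex, species or organ; inactive = no tumour finding and more than one negative test.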 An entry can have further records. Results that share an entry are repeated measurements across runs, samples, wells, individuals or studies. Marks in square brackets tell the records apart. Letters hold for one entry only. Additions like (4×) give the number of equal values in this list.
Assay: DSSTox (CPDBAS) Carcinogenic Potency Database Summary MultiCellCall Results
Conditions: animal carcinogenicity bioassays, multi-cell call summary
Excerpt: The Carcinogenic Potency Database (CPDB) is a unique and widely used international resource of the results of over 6500 chronic, long-term animal cancer tests on over 1500 chemical substances. The CPDB provides easy access to the bioassay literature, with qualitative and quantitative analyses of both positive and negative experiments that have been published over the past 50 years in the general literature and by the National Cancer Institute/National Toxicology Program. The CPDB standardizes the diverse literature of cancer bioassays that vary widely in protocol, histopathological examination and nomenclature, and in the published author's choices of what information to provide in their papers. Results are reported in the CPDB for tests in rats, mice, hamsters, dogs, and nonhuman primates, and are based on the most positive result among all experiments for each sex-species. The DSSTox CPDBAS (all species) file incorporates data from the CPDB Summary Tables for the full list of over 1500 chemical substances tested in at least one species. A summary MultiCellCall, based on experimental bioassay results of one or more species, is provided in the DSSTox CPDBAS file (see Source URL) for more than 1150 chemical substances.
Associated TD50 values and tumor site details for the relevant species/sex experiment supporting the overall CPDBAS MultiSiteCall are provided in the full DSSTox CPDBAS file (see Comment) and the corresponding CPDBAS Species Bioassay in PubChem. ActivityScore is computed as follows: multispecies=50, multisex=30, multisite=20, with combination scores computed as sums of these values, e.g. multispecies+multisite=70.

| SMILES | outcome |
| --- | --- |
| C=C(C)CCl | active; multisite active; multisex active [sample A]; also recorded: active; multisex active; multispecies active [sample B] |
| CN(C)C(=S)SSC(=S)N(C)C | inactive; multisex inactive; multispecies inactive [sample A]; also recorded: inactive; multisex inactive [sample B] |
| Brc1c(Br)c(Br)c(Oc2c(Br)c(Br)c(Br)c(Br)c2Br)c(Br)c1Br | active; multisex active [sample A] and inactive; multisex inactive [sample B] |
| Oc1c(Cl)c(Cl)c(Cl)c(Cl)c1Cl | active; multisite active [sample A]; also recorded: active; multisite active; multisex active [sample B]; also recorded: active; multisite active; multisex active; multispecies active [sample C] |
| CC(=O)OC1CC(C)OC(C)O1 (stereo unspecified) | active; multisite active [sample A]; also recorded: inactive; multisex inactive; multispecies inactive [sample B] |
| ClC1C(Cl)C(Cl)C(Cl)C(Cl)C1Cl (stereo unspecified) | active; multispecies active; also recorded: active; multisex active (2×); also recorded: active; multisite active; multisex active [separate samples] |
| C=CC(=C)Cl | active; multisite active; multisex active; multispecies active [sample A]; also recorded: inactive; multisex inactive; multispecies inactive [sample B] |
| CCCCOCCOCCOCc1cc2c(cc1CCC)OCO2 | active; multisex active; multispecies active [sample A]; also recorded: inactive; multisex inactive [sample B] |
| ClC=C(Cl)Cl | active; multisite active; multisex active; multispecies active [sample A]; also recorded: active; multisex active [sample B] |
| Cl/C=C/CCl | active; multisite active; multisex active; multispecies active [sample A]; also recorded: active; multisite active; multispecies active [sample B] |
| Cc1cccc(C)c1 | active; multisite active; multisex active [sample A]; also recorded: inactive; multisex inactive; multispecies inactive [sample B] |

From PubChem BioAssay AID1205 (EPA DSSTox, 2008)
